# About 200 (0.44%) of roughly 45,000 compounds were called active. About 7% were inconclusive and are not listed. Calls come from the whole dose curve; as a rule, active = well fitted activation curve with a large enough effect; inconclusive = small, poorly fitted or top-dose-only effect; inactive = no such curve, though single readings can be large or run the other way. The list shows a part of the results.
# Experiment: qHTS of TDP-43 Inhibitors: NCGC Sytravon Library Screen; note: 0% is about no effect; nearly all actives have a fitted effect of over 55% in size
# Conditions: yeast TDP-43 toxicity rescue, BacTiter-Glo growth, 24 h; series mostly up to 46.1 µM; growth rescue (activation): at the top concentration
# Outline: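 TDP-43-expressing yeast, pregrown in raffinose, seeded at OD600 0.02 in galactose medium with compound for 24 hr at 30 deg C. Growth read by BacTiter-Glo luminescence, so rescue of toxicity appears as activation.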
row,SMILES,growth rescue (activation)
1,COc1ccc(NC(=O)C2CCCCC2)cc1S(=O)(=O)N1CCOCC1,inactive: -9.61%
2,CCCCC(=O)/C=C/n1c(=S)oc2ccccc21,inactive: 21.1%
3,COc1ccc(CNC(=O)CN(c2ccccc2)S(=O)(=O)N(C)C)cc1,inactive: -1.83%
4,CN(Cc1ccccc1)C(=O)c1ccc2sc([C@@H]3O[C@H](CO)[C@H](O)[C@H](O)[C@H]3O)nc2c1,inactive: 3.54%
5,CCC(C)(C)C(=O)Nc1cc([N+](=O)[O-])ccc1F,inactive: 11.2%
6,CC1CC(CCC(=O)NC(=S)Nc2ccc(Cl)cn2)C(=O)O1 (stereo unspecified),inactive: 28.9%
7,CN(CC(=O)Nc1ccc(S(=O)(=O)N2CCCC2)cc1)Cc1ccc(Cl)c(Cl)c1,inactive: -24.5%
8,CCCn1nc([N+](=O)[O-])c(C(C#N)c2nc3ccccc3o2)c(Cl)c1=O (stereo unspecified),inactive: -10.6%
9,O=C(CC(=O)Nc1ccc(F)cc1)Nc1ccc(F)cc1,inactive: -8.63%
10,O=C(Nc1ccnn1C1CCN(Cc2cccc(F)c2F)CC1)C1CCCC1,inactive: 21.6%
11,CCCCCCCCCCOC(=O)Cn1c(COc2ccccc2OC)[n+](C)c2ccccc21,inactive: -69.3%
12,Cc1ccc(N(CC(=O)NC(C)(C)C)C(=O)CS(=O)CC(=O)Nc2ccc(F)cc2)cc1 (stereo unspecified),inactive: 1.94%
13,O=C(Nc1cc(-c2nc3ncccc3o2)ccc1Cl)c1ccc([N+](=O)[O-])o1,inactive: 7.61%
14,O=C1c2ccccc2CN1c1ccccc1,inactive: -2.65%
15,O=C(CCCN1C(=O)c2ccccc2C1=O)NC1=NCCS1,inactive: 12.6%
16,CCOC(=O)c1cc2c(nc1NC(=S)NCc1ccccc1)CCCC2,inactive: 1.82%
17,COc1ccc(C(=O)NC(=S)Nc2ccc(Cl)c(C(=O)O)c2)cc1,inactive: 1.52%
18,CCOC(=O)C1(Cc2cccc(Cl)c2)CCCN(C(=O)c2cccnc2)C1 (stereo unspecified),inactive: -2.42%
19,COc1ccc(NC(=O)C2CCC(=O)N2S(=O)(=O)c2ccc(C)cc2)cc1Cl (stereo unspecified),inactive: 8.44%
20,O=C(c1cccnc1)C1CCCN(Cc2nc(Cc3ccccc3F)no2)C1 (stereo unspecified),inactive: 11.2%
21,CCn1c(O)c(N=NC(=O)c2cccnc2)c2cc(Br)ccc21,inactive: 4.63%
22,CCNC(=O)COc1cccc(C(=O)NCc2ccccc2)c1,inactive: -8.76%

row,SMILES,growth rescue (activation)
1,CN(C)c1ccc(/C=N/N(CCC(=O)NC(C)(C)C)C2=NS(=O)(=O)c3ccccc32)cc1,inactive: 9.85%
2,O=C(Nc1nc(OCC(F)(F)F)cnc1/C=C\c1ccccc1)c1ccsc1,inactive: -6.28%
3,CCOc1ccc(N2CC(C(=O)N3CCc4ccccc43)CC2=O)cc1 (stereo unspecified),inactive: 26.2%
4,COc1cccc(CN(Cc2ccccc2F)S(=O)(=O)c2ccc(S(=O)(=O)NCc3ccccc3)cc2)c1,inactive: 5.34%
5,COc1ccc(NC(=O)c2c([N+](=O)[O-])c(C(C)(C)C)nn2C)cc1,inactive: 0.68%
6,O=C(O)c1c(Cl)nc2ccccn12,inactive: 4.45%
7,Cn1c(Cn2cnc(Cl)c2Cl)nc2ccccc21,inactive: 6%
8,COc1ccc(C(C(=O)NC2CCCC2)N(C(=O)c2csnn2)C2CCCC2)cc1 (stereo unspecified),inactive: -5.56%
9,COc1ccc(S(=O)(=O)NC(=O)C2(C)CCN2C(=O)Cc2ccccc2Cl)cc1OC (stereo unspecified),inactive: -13.1%
10,Cc1ccc(-n2[nH]c3c4c(ccc3c2=O)C(=O)c2ccccc2C4=O)cc1,inactive: 0.064%
11,CC(C)(C)C1=NN(c2ccc([N+](=O)[O-])cc2)C(c2ccccc2)C1 (stereo unspecified),inactive: 15.9%
12,CCOc1ccc(C(=O)Nc2ccc(C(F)(F)F)n(C)c2=O)cc1,inactive: 0.897%
13,CCOCCCNC(=O)/C(C#N)=C/c1ccc(C)o1,inactive: 6.23%
14,NS(=O)(=O)c1ccc(CCNC(=O)CNC(=O)c2ccc(Oc3ccccc3)cc2)cc1,inactive: 13.7%
15,COc1ccc(C2C3=C(CCCC3=O)N(CC(=O)O)C3=C2C(=O)CCC3)cc1Cl,inactive: 13.3%
16,CCOC(=O)c1c(-c2cccc([N+](=O)[O-])c2)csc1NC(=O)CCCOc1ccccc1,inactive: 5.63%
17,O=C(Cn1nnc(-c2ccccc2)n1)NNC(=O)c1cccc([N+](=O)[O-])c1,inactive: 11.6%
18,COc1ccc(N2C(=O)CCC(C(=O)NCCCN3CCC(C)CC3)C2c2ccc(OC)c(OC)c2)cc1 (stereo unspecified),inactive: -0.858%
19,C/C(CCc1ccccc1)=N\NC(=O)c1ccc(CN2CCOCC2)cc1,inactive: 16.6%
20,CC(=O)Nc1ccc(NC(=O)c2sc(-c3ccccc3)nc2C)cc1,inactive: 6.69%
21,CCCN(C(=O)CSc1cc(-c2ccccc2)c2ccc(OC)cc2n1)C1CCS(=O)(=O)C1 (stereo unspecified),inactive: 19.2%
22,Clc1ccc(-c2cc(-c3nnc4n3CCCCC4)c3ccccc3n2)cc1,inactive: 13.3%

row,SMILES,growth rescue (activation)
1,O=C(COc1cccnc1[N+](=O)[O-])N1CCN(S(=O)(=O)c2ccccc2)CC1,inactive: 11.7%
2,CC(C)CC(=O)Nc1c2c(nn1-c1ccc(F)cc1)CS(=O)(=O)C2,inactive: 20.8%
3,CN(C)S(=O)(=O)c1cccc(NC(=O)c2n[nH]c(=O)c3ccccc23)c1,inactive: 3.78%
4,Cc1[nH]nc(SCC(=O)Nc2cccc(O)c2)c1[N+](=O)[O-],inactive: 4.46%
5,CCN1C(=O)C(CC(=O)Nc2ccc(OC)cc2)N(CCCN2CCN(c3ccc(OC)cc3)CC2)C1=S (stereo unspecified),inactive: 9.7%
6,O=C(CN1C(=O)NC(Cc2ccccc2)C1=O)Nc1ccccc1 (stereo unspecified),inactive: 18.2%
7,COc1cccc(CN2CCC(CO)(CC3CCCCO3)CC2)c1 (stereo unspecified),inactive: -14.7%
8,O=C(c1ccc2c(c1)OCO2)C1CCCN(C2CCN(CCc3ccccc3)CC2)C1 (stereo unspecified),inactive: 10.1%
9,COc1ccc(CC(=O)Nc2sc3c(c2C(N)=O)CCCC3)cc1OC,inactive: 15.5%
10,COc1ccccc1C(=O)Nc1ccccc1N1CCN(S(C)(=O)=O)CC1,inactive: 16.3%
11,CNc1ccccc1C(C)(C)c1cn(-c2ccc([N+](=O)[O-])cc2)nn1,inactive: 3.38%
12,CCn1c(CC(=O)Nc2ccccc2C)nnc1SCC(=O)Nc1nncs1,inactive: 3.51%
13,Cc1ccc2nc(-c3ccc(N4C(=N)SC5CS(=O)(=O)CC54)cc3)sc2c1 (stereo unspecified),inactive: -0.323%
14,COc1ccccc1C(=O)NCCc1nc2ccccc2n1C,inactive: 14.1%
15,CC/C(O)=C1\C(=O)CC(c2ccccc2)CC1=NCCC(=O)O (stereo unspecified),inactive: -8.44%
16,Cc1cc(C)cc(N(C(=O)CCC(=O)Nc2cc(C)on2)C(C(=O)NC2CCCC2)c2ccco2)c1 (stereo unspecified),inactive: -18.9%
17,COc1ccc(S(=O)(=O)N2CCN(Cc3ccco3)CC2)cc1,inactive: 13.3%
18,Cc1ccccc1S(=O)(=O)NC(=O)C1(C)CCN1C(=O)COc1ccc(Cl)cc1 (stereo unspecified),inactive: 11%
19,Cc1nc2ncccn2c1-c1csc(Nc2cccc(C(=O)O)c2)n1,inactive: 10.2%
20,COc1ccc(Cl)cc1NC(=O)C(=O)NCc1ccncc1,inactive: -14.6%
21,Cc1ccccc1Cn1cc(NC(=O)CCCn2nc([N+](=O)[O-])cc2C)cn1,inactive: -1.75%
22,O=C(O)c1ccc(Cl)c(S(=O)(=O)N(Cc2ccccc2)c2ccc(Cl)cc2)c1,inactive: -4.45%

row,SMILES,growth rescue (activation)
1,CCCCNC(=O)C1CCCN(S(=O)(=O)CC)C1 (stereo unspecified),inactive: -4.74%
2,OCCC1CN(Cc2c(F)cccc2Cl)CCN1C1CCCCC1 (stereo unspecified),inactive: -4.6%
3,COCCN(Cc1nnc(-c2cccs2)o1)C(=O)CN1C(=O)NC2(CCCCC2)C1=O,inactive: -16.2%
4,O=C(CCCc1c[nH]c2ccccc12)NCc1ccccc1F,inactive: -3.69%
5,CCOc1ccc(C(CC(=O)O)NC(=O)c2cccs2)cc1 (stereo unspecified),inactive: -0.98%
6,CC(=O)Nc1ncc(Cc2cccc(Cl)c2)s1,inactive: -11.8%
7,O=C(Nc1ccc2c(c1)OCCO2)C1CCCN1C(=O)Nc1ccccc1 (stereo unspecified),inactive: 9.22%
8,COc1ccc(-c2cc(C(F)(F)F)n3nc(C(=O)N4CCN5CCCC5C4)cc3n2)cc1OC (stereo unspecified),inactive: -23.4%
9,Cc1ccc(S(=O)(=O)N2CCN(S(=O)(=O)N3CCCCCC3)CC2)cc1,inactive: 1.03%
10,CCOc1cc(-c2noc(CCC(=O)NCC3CCCO3)n2)ccc1OC (stereo unspecified),inactive: 1.13%
11,CC(=O)c1sc(NC(=O)COc2ccc(Cl)cc2C)nc1C,inactive: -9.03%
12,COC(=O)c1sccc1NC(=O)C1CCCCC1C(=O)O (stereo unspecified),inactive: 4.8%
13,CCN(CC(=O)Nc1c(F)cccc1F)C(=O)C1COc2ccccc2O1 (stereo unspecified),inactive: -10%
14,O=C(O)CC/C(=N\Nc1ccc([N+](=O)[O-])cc1S(=O)(=O)N1CCOCC1)c1cccs1,inactive: -3.22%
15,CCc1cccc(C)c1NS(=O)(=O)c1cccs1,inactive: 23.4%
16,COc1ccc(C(=O)N2CCC(C)(C(=O)O)C2)cc1OC (stereo unspecified),inactive: 13%
17,CC1CN(S(=O)(=O)c2ccc(C(=O)NCCCn3ccnc3)cc2)CC(C)O1 (stereo unspecified),inactive: -4.71%
18,Cc1ccc(C)c(Nc2nc(-c3cccnc3)cs2)c1,inactive: 15.4%
19,Cc1ccc(-n2c(C)cc(C(=O)CN3CCOCC3)c2C)cc1C,inactive: -4.26%
20,O=C(COc1ccccc1Cl)NCCCNC(=O)c1ccco1,inactive: -1.58%
21,CCn1c(O)c(/C=N/N=C/c2ccc(OC)cc2)c2cc(C3=NNC(=O)CC3)ccc21,inactive: -8.54%
22,Cc1ccc(-c2onc3ccc(Br)cc23)cc1,inactive: 4.77%

row,SMILES,growth rescue (activation)
1,Cc1cc(OC(=O)c2ccco2)c(Sc2ccccc2[N+](=O)[O-])c(=O)o1,inactive: 3.59%
2,O=C(COCC(=O)N1CCOCC1)N1CCOCC1,inactive: 5.48%
3,O=C(c1cccs1)N(c1ccc(Cl)cc1)C1C=CS(=O)(=O)C1 (stereo unspecified),inactive: 2.19%
4,O=C(CSc1ccccc1)Nc1ccc2c(c1)OCO2,inactive: 30.5%
5,COC(=O)CNC(c1ccccc1)c1cc(Br)ccc1N (stereo unspecified),inactive: 20.8%
6,CC/C(O)=C1\C(=O)CC(c2ccccc2)CC1=NC(C)C (stereo unspecified),inactive: -5.25%
7,CCCNC(=O)CN(C)CC(=O)Nc1ccccc1C#N,inactive: -0.655%
8,CNc1ccc([N+](=O)[O-])cc1-c1nc2ccccc2[nH]c1=O,inactive: -24.2%
9,CCOc1ccc(S(=O)(=O)N(CC)CC(=O)NCc2cccnc2)cc1,inactive: -18.6%
10,O=C(Nc1cccc(Cl)c1)Nc1ccnc(-c2cccnc2)n1,inactive: 12%
11,CC(=O)NCc1ccc(-c2csc(NC(=O)CCc3nc4ccccc4c(=O)[nH]3)n2)s1,inactive: -6.81%
12,CC(C(=O)NCC1(c2ccccc2)CCOCC1)N1CCOCC1 (stereo unspecified),inactive: 3.75%
13,COc1ccccc1N1CCN(CC(=O)Nc2c(C)n(C)n(-c3ccccc3)c2=O)CC1,inactive: 5.29%
14,O=C(Nc1cc(Cl)ccc1Cl)c1cc(-c2ccco2)on1,inactive: 2%
15,CCOC(=O)C1(CCCc2ccccc2)CCN(Cc2cnn(C)c2)CC1,inactive: 0.884%
16,CC(=O)NC1C(Oc2ccc3c(C)cc(=O)oc3c2)OC(COC(C)=O)C(OC(C)=O)C1OC(C)=O (stereo unspecified),inactive: -1.95%
17,CCN(CC(=O)NCCc1ccccc1)S(=O)(=O)c1ccc(C)cc1,inactive: 11%
18,CC(=O)Nc1ccc(NC(=O)C(C)OC(=O)c2ccc(S(=O)(=O)N3CCCCC3)cc2)cc1 (stereo unspecified),inactive: 22.7%
